# Article PMC4242493
# Some of the results follow. The list includes weakly bound sequences.
# Biological target: MaxL homodimer (UniProt P61244)
# Experiment: universal protein-binding microarray (PBM)
# Conditions: PBS-based mixture, 10 nM His-tagged protein dimer, 2% milk, 200 ng/uL BSA, 50 ng/uL salmon testes DNA, 0.02% TX-100; detection with Alexa 488 anti-His …; high values mean tight binding; most listed sequences are background and not binding sites; double strand, one strand shown
# Sequence of UniProt P61244 (P61244 whole entry): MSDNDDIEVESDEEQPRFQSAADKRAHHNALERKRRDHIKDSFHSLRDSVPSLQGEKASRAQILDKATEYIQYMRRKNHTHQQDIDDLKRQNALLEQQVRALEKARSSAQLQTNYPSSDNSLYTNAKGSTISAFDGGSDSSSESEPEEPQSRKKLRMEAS
row,Sequence,binding signal (normalized occupancy)
1,GGCGATTA,0.0745
2,ACGTGTAC,0.0984
3,ATAGATCG,0.0741
4,GTCCAGTA,0.0711
5,AACGCCCG,0.0749
6,AAATTCGG,0.0731
7,ATCTATAA,0.0827
8,CGCTGTAA,0.0749
9,GTCGCGAC,0.0765
10,TGATAGAA,0.0854
11,CGCACGCA,0.0894
12,AGGACAGA,0.0755
13,CTGGCATC,0.0802
14,GTCTACAC,0.0796
15,CAGGGTTC,0.0691
16,GTAGGCCA,0.073
17,GACGCAGC,0.0696
18,TTCATGAA,0.0781
19,AAACCTGT,0.0771
20,CCCCATCA,0.0823
21,ATACTTAG,0.0765
22,CCGCCTAA,0.0695
23,ACTTCCCC,0.0762
24,AGTCCTCG,0.073
25,CTCCGAGA,0.0665

row,Sequence,binding signal (normalized occupancy)
1,GTCTTTAA,0.075
2,AGGGTGTG,0.083
3,CCGCGTTA,0.0844
4,ATTCCGTA,0.0718
5,CTTGAGCA,0.0716
6,ATCTATCC,0.079
7,AATGTGTG,0.0963
8,AAATTACC,0.0766
9,TGGCTCAA,0.0788
10,GGCCGCAC,0.0778
11,CTTTGATA,0.0754
12,TACATGTA,0.0978
13,AGAGGTCG,0.0702
14,CAACGGGA,0.0696
15,CGATTGAG,0.0741
16,AAGCATTC,0.0773
17,CAGTGTGA,0.0846
18,CTCATCGA,0.0766
19,TAATGAAA,0.0775
20,AAGAATGG,0.0739
21,AGCTCGGA,0.0663
22,ACGGACCC,0.0719
23,TAGATGCA,0.0785
24,AGGGTGTA,0.0815
25,TGTAGCAA,0.0791

row,Sequence,binding signal (normalized occupancy)
1,GACTGGAC,0.0684
2,AGCCGGTA,0.0711
3,AACCGTGC,0.0756
4,AGGTTTTA,0.0742
5,GCATGTAC,0.0973
6,ACGACCCT,0.0771
7,TCATACCA,0.0779
8,ATTTCGCG,0.0704
9,CCAGGCGA,0.0673
10,CATAATCA,0.0913
11,AGTTAACG,0.0743
12,GTTCGTAA,0.0774
13,GCCCACGC,0.0978
14,ACCTTCGG,0.0671
15,CCGAGCCA,0.075
16,ACTTGAGG,0.0797
17,TGTCTTAA,0.0757
18,AGTATAAG,0.0804
19,AAGCCTGC,0.0691
20,AATTACTC,0.0715
21,CTGCTTGC,0.0676
22,CCGTCACG,0.0826
23,ATCGTCTA,0.0762
24,AGTGCGGG,0.07
25,CGCGGGAC,0.0733

row,Sequence,binding signal (normalized occupancy)
1,AACCTGTA,0.0779
2,AAGCCCTA,0.0709
3,CTATTTGC,0.0743
4,AACGCACA,0.083
5,AGAAGACC,0.0721
6,GCCTGGAA,0.0719
7,TATATGAA,0.0809
8,GGGCGGCA,0.0702
9,ACACGGGC,0.0739
10,GCCTGCGA,0.0709
11,GGGCATTA,0.0747
12,CGCCCAAA,0.0711
13,ATCTCCTC,0.0776
14,ATGACTCG,0.0761
15,GCCGACCA,0.0757
16,ATTCTCCA,0.076
17,ATATTCGG,0.0785
18,CTTGCAAG,0.0643
19,GTAGAGTA,0.073
20,GCCGGATA,0.0712
21,ACAACACT,0.0746
22,AACTGTCC,0.0711
23,AGAGCCTA,0.0729
24,ACATGGAC,0.0847
25,GGTGCCGA,0.0705

row,Sequence,binding signal (normalized occupancy)
1,ATTCATTG,0.0787
2,CACTCCTG,0.0721
3,GCGAAACA,0.0802
4,GTAAATAC,0.0788
5,GGCTATAC,0.072
6,CGAGGCAG,0.0725
7,CCCTAGGA,0.066
8,GGTTTGTA,0.0749
9,AGAGTGTC,0.0703
10,GATCTTCC,0.0741
11,CCATGGTC,0.0849
12,CAAAGCCA,0.076
13,GCTGAACA,0.0755
14,AGTGGGCA,0.0761
15,GATTTGAC,0.0751
16,TATTACCA,0.0787
17,CTGAGGCA,0.0726
18,GATTGCGA,0.0719
19,GCGTTGCC,0.0755
20,TTCGCCAA,0.0733
21,CTAAAATC,0.0735
22,AATAATGT,0.0873
23,ACTATAAC,0.0847
24,CATAGCAC,0.0874
25,CGGGGGAG,0.0782

row,Sequence,binding signal (normalized occupancy)
1,CGAAATTA,0.0707
2,CCGACCTC,0.0712
3,ATAACTTG,0.0789
4,AAATCCAT,0.0817
5,GGTCGCAA,0.0758
6,AAGAATAT,0.0801
7,CCGGTCTC,0.0693
8,CGTAACTC,0.0757
9,AGAATACG,0.0787
10,CCTGCAAA,0.0722
11,CGAAGTGC,0.0732
12,ATTTCGCA,0.07
13,ATCTTACG,0.0764
14,CTATCAAG,0.0742
15,CATTCGAG,0.0783
16,TATTGCCA,0.082
17,CAAAAAAG,0.0719
18,CAGTATGG,0.0813
19,CATGTCAG,0.0859
20,CTGGGACC,0.0772
21,CGATGACG,0.0708
22,ACTCCCTC,0.0805
23,CCGTTCAG,0.0689
24,CCGCCAAA,0.0717
25,AACTGTAA,0.0741

row,Sequence,binding signal (normalized occupancy)
1,AAAGTTAC,0.0744
2,GACATGCC,0.0968
3,CAATCGTC,0.0781
4,ACGATGAA,0.0787
5,AAGTTTAC,0.0754
6,ACGAATTC,0.0726
7,ACGATGAT,0.0814
8,AGATTCCG,0.0709
9,AGGCAAGA,0.0755
10,ATCAAGAT,0.082
11,CAGGGTAG,0.0718
12,GCCCACCC,0.087
13,ACGTTCAT,0.0858
14,AATTTAGA,0.0747
15,ACTTATGA,0.0761
16,CTCCAATC,0.074
17,ACGTATAG,0.0806
18,ATTAATCG,0.075
19,ATGTCACA,0.0852
20,GCTCTCCC,0.0755
21,AAAGGCAT,0.0752
22,GGACCACA,0.0816
